Laboratory results taken from patent EP4431525A1 (Anaveon AG, dated 2024).

B1: Proleukin (aldesleukin) (ligand)
chain: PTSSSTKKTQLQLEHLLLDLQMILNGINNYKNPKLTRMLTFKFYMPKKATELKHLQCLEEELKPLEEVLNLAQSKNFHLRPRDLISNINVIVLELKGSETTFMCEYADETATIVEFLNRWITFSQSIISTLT
B2: VBE401 (other)
heavy: EVQLVQSGAEVKKPGESLKISCKGSGYAFTNYLIEWVRQMPGKGLEWMGVINPGSGGTNYNEKFKGQVTISADKSISTAYLQWSSLKASDTAMYYCARWRGEGGGFHLRPRDLISNINVIVLELKGSETTFMCEYADETATIVEFLNRWITFSQSIISTLTPTSSSTKKTQLQLEHLLLDLQMILNGINNYKNPKLTRMLTFKFYMPKKATELKHLQCLEEELKPLEEVLNLAQSKGGGGYYAYFDVWGQGTTVTVSSASTKGPSVFPLAPSSKSTSGGTAALGCLVKDYFPEPVTVSWNSGALTSGVHTFPAVLQSSGLYSLSSVVTVPSSSLGTQTYICNVNHKPSNTKVDKRV[letters of human IgG1 Fc with changes left out]
light: AIRLTQSPSSFSASTGDRVTITCKASQSVDYQGDSYMNWYQQKPGKAPKLLIYAASNLESGVPSRFSGSGSGTDFTLTISSLQSEDFATYYCQQSNEDPYTFGGGTKVEIKRTVAAPSVFIFPPSDEQLKSGTASVVCLLNNFYPREAKVQWKVDNALQSGNSQESVTEQDSKDSTYSLSSTLTLSKADYEKHKVYACEVTHQGLSSPVTKSFNRGEC
B3: LIZ707 (other)
heavy: EVQLVQSGAEVKKPGESLKISCKGSGYAFTNYLIEWVRQMPGKGLEWMGVINPGGGFYMPKKATELKHLQCLEEELKPLEEVLNLAQSKNFHLRPRDLISNINVIVLELKGSETTFMCEYADETATIVEFLNRWITFCQSIISTLTPTSSSTKKTQLQLEHLLLDLQMILNGINNYKNPKLTRMLTFKGGGSGGTNYNEKFKGQVTISADKSISTAYLQWSSLKASDTAMYYCARWRGEGYYAYFDVWGQGTTVTVSSASTKGPSVFPLAPSSKSTSGGTAALGCLVKDYFPEPVTVSWNSGALTSGVHTFPAVLQSSGLYSLSSVVTVPSSSLGTQTYICNVNHKPSNTKVDKRV[letters of human IgG1 Fc with changes left out]
light: B2 light
B4: LPT269 (other)
heavy: EVQLVQSGAEVKKPGESLKISCKGSGYSFTNFYIHWVRQAPGQRLEWMGSIYPNYGDTAYNQKFKDRFVFSLDTSVSTAYLQISSLKAEDTAVYYCARGYSYAMDYWGQGTTVTVSSASTKGPSVFPLAPSSKSTSGGTAALGCLVKDYFPEPVTVSWNSGALTSGVHTFPAVLQSSGLYSLSSVVTVPSSSLGTQTYICNVNHKPSNTKVDKRV[letters of human IgG1 Fc with changes left out]
light: DIQMTQSPSSVSASVGDRVTITCSASQGISGNFHLRPRDLISNINVIVLELKGSETTFMCEYADETATIVEFLNRWITFSQSIISTLTPTSSSTKKTQLQLEHLLLDLQMILNGINNYKNPKLTRMLTFKFYMPKKATELKHLQCLEEELKPLEEVLNLAQSKGDLNWYQQKPGKAPKLLIYHTSSLHSGVPSRFSGSGSGTDFTLTISSLQPEDFATYYCQYYSKDLLTFGGGTKLEIKRTVAAPSVFIFPPSDEQLKSGTASVVCLLNNFYPREAKVQWKVDNALQSGNSQESVTEQDSKDSTYSLSSTLTLSKADYEKHKVYACEVTHQGLSSPVTKSFNRGECRTVAAPSVFIFPPSDEQLKSGTASVVCLLNNFYPREAKVQWKVDNALQSGNSQESVTEQDSKDSTYSLSSTLTLSKADYEKHKVYACEVTHQGLSSPVTKSFNRGEC
notes: Antibody C, IL-2CP in CDR-L1, linkers 0/1 AA

Columns and labels:
[1] = target: T1, CD122/CD132 complex (His-tagged, Acro Biosystem, Cat # ILG-H5283) (UniProt P14784 27-239; P31785 23-262, limits assumed); assay: SPR, CD122/CD132 captured on NTA chip
T1 construct: also called dimeric IL-2 receptor
T1 sequence (looked up) 1: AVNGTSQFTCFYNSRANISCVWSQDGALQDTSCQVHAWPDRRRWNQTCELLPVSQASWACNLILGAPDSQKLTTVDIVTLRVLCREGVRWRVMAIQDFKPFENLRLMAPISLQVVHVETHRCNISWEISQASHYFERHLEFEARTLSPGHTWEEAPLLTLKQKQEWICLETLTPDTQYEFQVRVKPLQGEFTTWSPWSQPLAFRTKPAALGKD
T1 sequence (looked up) 2: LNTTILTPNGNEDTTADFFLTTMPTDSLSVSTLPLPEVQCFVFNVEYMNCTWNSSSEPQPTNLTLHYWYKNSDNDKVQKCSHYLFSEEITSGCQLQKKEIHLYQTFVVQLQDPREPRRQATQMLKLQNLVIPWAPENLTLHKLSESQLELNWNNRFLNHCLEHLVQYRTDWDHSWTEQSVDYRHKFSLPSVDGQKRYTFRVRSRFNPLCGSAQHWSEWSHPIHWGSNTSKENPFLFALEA

[2] = target: T2, IL-2R on murine splenocytes (NK cells, CD8 T cells, Treg cells) (mouse, UniProt P01590 22-268; P16297 27-539; P34902 23-369); assay: cell-based or functional assay
T2 sequence (looked up) 1: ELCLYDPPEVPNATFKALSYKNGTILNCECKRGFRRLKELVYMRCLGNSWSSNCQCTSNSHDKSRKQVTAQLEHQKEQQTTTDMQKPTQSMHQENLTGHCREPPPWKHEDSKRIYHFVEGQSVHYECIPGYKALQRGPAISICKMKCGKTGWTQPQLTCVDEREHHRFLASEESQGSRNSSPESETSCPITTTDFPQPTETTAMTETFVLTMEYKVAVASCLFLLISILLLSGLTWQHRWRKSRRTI
T2 sequence (looked up) 2: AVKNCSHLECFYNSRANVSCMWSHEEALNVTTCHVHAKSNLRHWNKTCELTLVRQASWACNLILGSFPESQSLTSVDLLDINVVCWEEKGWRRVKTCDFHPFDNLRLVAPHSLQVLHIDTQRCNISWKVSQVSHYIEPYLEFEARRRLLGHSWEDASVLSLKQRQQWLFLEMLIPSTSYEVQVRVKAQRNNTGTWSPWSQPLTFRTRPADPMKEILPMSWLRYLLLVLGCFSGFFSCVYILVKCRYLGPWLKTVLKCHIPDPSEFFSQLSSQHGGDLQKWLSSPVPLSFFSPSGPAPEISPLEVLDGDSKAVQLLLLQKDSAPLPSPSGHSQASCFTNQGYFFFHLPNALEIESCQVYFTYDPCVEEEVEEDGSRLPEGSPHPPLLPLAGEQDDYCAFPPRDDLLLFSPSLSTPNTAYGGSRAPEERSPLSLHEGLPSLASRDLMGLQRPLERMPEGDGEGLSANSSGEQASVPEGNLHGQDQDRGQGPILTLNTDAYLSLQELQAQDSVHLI
T2 sequence (looked up) 3: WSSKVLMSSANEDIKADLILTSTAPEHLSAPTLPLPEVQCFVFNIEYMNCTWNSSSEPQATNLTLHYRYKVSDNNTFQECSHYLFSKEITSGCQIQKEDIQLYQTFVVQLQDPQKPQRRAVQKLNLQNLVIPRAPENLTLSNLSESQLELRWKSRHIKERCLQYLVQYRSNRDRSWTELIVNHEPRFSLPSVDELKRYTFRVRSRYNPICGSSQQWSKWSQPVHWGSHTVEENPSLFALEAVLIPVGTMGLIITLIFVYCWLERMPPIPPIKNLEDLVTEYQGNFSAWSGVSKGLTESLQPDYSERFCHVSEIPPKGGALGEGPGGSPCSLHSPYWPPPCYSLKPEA

[3] = target: T2, IL-2R on murine splenocytes (NK cells, …); assay: cell-based or functional assay; remark: listed apart in the source
[4] = target: T3, His-tagged recombinant CD25 (UniProt P01589 22-213, limits assumed); assay: SPR, His-CD25 captured
T3 construct: also called IL-2R alpha chain
T3 sequence (looked up): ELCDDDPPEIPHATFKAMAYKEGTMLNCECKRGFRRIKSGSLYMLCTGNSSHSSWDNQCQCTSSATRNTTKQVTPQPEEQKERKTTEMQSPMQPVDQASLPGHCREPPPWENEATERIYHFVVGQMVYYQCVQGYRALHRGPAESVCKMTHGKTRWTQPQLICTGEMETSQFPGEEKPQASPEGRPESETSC

Binder	Kd [1] [nM]	EC50 pSTAT5 on CD8 cells (mouse splenocytes) [2] [nM]	EC50 pSTAT5 on NK cells (mouse splenocytes) [2] [nM]	EC50 pSTAT5 on Treg cells (mouse splenocytes) [2] [pM]	EC50 CD8 cells (pSTAT5, mouse splenocytes) [3] [nM]	EC50 Treg cells (pSTAT5, mouse splenocytes) [3]	EC50 NK cells (pSTAT5, mouse splenocytes) [3] [nM]	Kd [4] [nM]
B1	0.42	11.9	2.51	< 20	4.1	< 16 pM	–	–
B2	–	–	–	–	32.2	2.6 nM	34.3	–
B3	–	–	–	–	12.5	3.8 nM	5.3	–
B4	–	–	–	–	–	–	–	0.12
